According to PubChem BioAssay AID485294 (National Center for Advancing Translational Sciences (NCATS), 2010):
The whole screen tested about 370,000 compounds, of which about 150 (0.041%) were called active. Inconclusive means that the source gave no clear call. Such entries were picked first, then a sample of the others. Calls follow the shape of the dose curve; as a rule, active = well fitted inhibition curve with a large enough effect; inconclusive = small, poorly fitted or top-dose-only effect; inactive = flat fitted curve, though single readings scatter. No potency is given beside an inconclusive call; the fits are too rough.

target: Beta-lactamase (Escherichia coli (strain K12)) (UniProt P00811); test: qHTS Inhibitors of AmpC Beta-Lactamase (assay with detergent); conditions: AmpC hydrolysis of nitrocefin, absorbance 480 nm, 0.01% Triton; series mostly up to 114 µM; also: nearly all actives have a fitted effect of over 25% in size
Sequence of UniProt P00811 (P00811 whole entry, looked up): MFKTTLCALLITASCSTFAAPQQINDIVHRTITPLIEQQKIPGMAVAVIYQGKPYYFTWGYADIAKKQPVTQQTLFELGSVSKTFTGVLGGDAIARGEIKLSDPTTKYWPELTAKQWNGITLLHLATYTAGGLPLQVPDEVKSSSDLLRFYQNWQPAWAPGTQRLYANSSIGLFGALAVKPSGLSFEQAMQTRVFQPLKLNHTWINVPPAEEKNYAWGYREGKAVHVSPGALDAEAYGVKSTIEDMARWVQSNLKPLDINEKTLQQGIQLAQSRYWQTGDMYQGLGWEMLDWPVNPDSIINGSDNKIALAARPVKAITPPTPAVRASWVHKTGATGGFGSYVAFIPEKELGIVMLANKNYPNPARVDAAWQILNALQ
Outline: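 AmpC (5.3 nM in the dispensed reagent) in 20 mM phosphate pH 7.0 with 0.01% (detergent screen) or 0.0001% Triton X-100 was preincubated with compounds for 15 min at room temperature. Nitrocefin was then added from an 800 uM solution, and hydrolysis was followed at 480 nm.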
Potency is read from the fitted curve at half-maximal effect; tags tell the direction and shape of the fitted curve.

| SMILES | Potency |
| --- | --- |
| CCOC(=O)c1c(-c2ccc(-c3ccccc3)cc2)csc1NC(=O)c1cccc(N2C(=O)CCC2=O)c1 | inconclusive [inhibitor, single point] |
| COc1ccc(OC)c(CCNC(=O)Cn2cccc2C(=O)c2ccccc2)c1 | inconclusive [inhibitor, full curve, poor fit] |
| Cn1cc(/C=N/NC(=O)c2ccccc2O)c2ccccc21 | inactive |
| O=C(COC(=O)Cc1ccc(S(=O)(=O)N2CCOCC2)s1)Nc1ccc([N+](=O)[O-])cc1 | inconclusive [inhibitor, full curve, poor fit] |
| Cc1ccc(C)c(N2CCN(C(=O)c3cc4sccc4n3C)CC2)c1 | inconclusive [inhibitor, full curve, poor fit] |
| COc1ccc(NC(=O)c2ccc3c(c2)C(=O)N(CC2CCCO2)C3=O)cc1O (centres undefined) | inconclusive [inhibitor, full curve] |
| OC(COc1ccc2ccccc2c1)Cn1ccnc1 (centres undefined) | inconclusive [inhibitor, full curve, poor fit] |
| O=C(Nc1ccc(S(=O)(=O)N2CCCCC2)cc1)c1ccc(CN2CCOCC2)cc1 | inconclusive [inhibitor, full curve, poor fit] |
| CC(=O)c1ccc(NC(=S)Nc2cccc(Cl)c2C)cc1 | inactive |
| O=C(O)CCN1C(=O)c2ccc(NC(=O)CSc3ccccc3)cc2C1=O | inconclusive [inhibitor, single point] |
| O=C(OCc1cc(-c2ccccc2)no1)c1ccc2ccccc2n1 | inconclusive [inhibitor, full curve] |
| O=S(=O)(c1ccc(Br)s1)N1CCc2ccccc2C1 | inconclusive [inhibitor, full curve] |
| C=CCN1CC[C@]23c4c5ccc(O)c4O[C@H]2C(=O)CC[C@@]3(O)[C@H]1C5 | inconclusive [inhibitor, full curve, poor fit] |
| CCOC(=O)c1c(NC(=O)Cc2ccccc2)sc2c1CCN(CC)C2 | inconclusive [inhibitor, full curve] |
| Nc1nonc1-c1nc2ccccc2n1CC(=O)N/N=C\c1ccc(-c2ccc(Cl)cc2)o1 | inconclusive [inhibitor, partial curve] |
| CCCC12CN3CC(C)(CN(C1)C3c1ccc(OC(C)C)cc1)C2=O (centres undefined) | inconclusive [inhibitor, full curve, poor fit] |
| CNC(=O)c1cc(C(=O)c2ccc(Cl)cc2)c(Br)[nH]1 | inactive |
| Cc1cc(C)c2nc(N3CCCC3)c(C#N)cc2c1 | inconclusive [inhibitor, full curve, poor fit] |
| c1ccc2c(c1)NCC1CCCN21 (centres undefined) | inactive |
| O=C1CSc2ccccc2N1Cc1ccccc1F | inconclusive [inhibitor, full curve, poor fit] |
| COc1cc(=O)n2c(n1)SCCC2 | inconclusive [inhibitor, partial curve, poor fit] |
| c1cncc(-c2nnc(C3CCCCC3)o2)c1 | inconclusive [inhibitor, partial curve, poor fit] |

| SMILES | Potency |
| --- | --- |
| CC(C)CC(=O)NC(=S)Nc1ccc(NC(=O)c2ccco2)cc1 | inconclusive [inhibitor, partial curve] |
| O=C(NCCC1=CCCCC1)C1CCCN(S(=O)(=O)c2ccc(F)cc2)C1 (centres undefined) | inconclusive [inhibitor, full curve, poor fit] |
| CCC1Oc2ccc(C)cc2N(CC(=O)NCCCN2CCCCC2CC)C1=O (centres undefined) | inconclusive [inhibitor, full curve] |
| CC(C)(C)NC(=O)CN(C(=O)C(=O)Nc1ccc2c(c1)OCCO2)C1CC1 | inconclusive [inhibitor, single point] |
| Cc1cc(N2C(=O)c3ccc(C(=O)Nc4ccc(CC(=O)O)cc4)cc3C2=O)no1 | inconclusive [inhibitor, full curve, poor fit] |
| Fc1ccc(-c2oncc2-c2nnnn2-c2ccccc2)cc1F | inconclusive [inhibitor, partial curve] |
| COc1ccc(N2CCN(C(=O)C3(C)CC3(Cl)Cl)CC2)cc1 (centres undefined) | inconclusive [inhibitor, full curve, poor fit] |
| Cc1ccc(C(=O)N2CC(C)SC2=Nc2cccc(S(=O)(=O)N(C)C)c2)cc1 (centres undefined) | inconclusive [inhibitor, partial curve, poor fit] |
| CCOc1ccccc1N1CCN(C(=O)Cc2ccc(S(=O)(=O)N3CCOCC3)s2)CC1 | inconclusive [inhibitor, full curve, poor fit] |
| Cc1cccn2c(=O)c(C=Nc3ccc(Cl)cc3)c(NCCO)nc12 | inconclusive [inhibitor, partial curve] |
| OC(COc1ccc(F)cc1)CN1CCN(CC(O)COc2ccc(F)cc2)CC1 (centres undefined) | inconclusive [inhibitor, full curve, poor fit] |
| C1CCc2nc3c(nc2C1)CCCC3 | inactive |
| Cc1ccc(-c2cc(C(=O)N3CCCC3)no2)cc1 | inconclusive [inhibitor, single point] |
| CC(C)[C@H](NS(=O)(=O)c1ccccc1)C(=O)OCC(=O)Nc1ccccc1Sc1ccccc1 | inconclusive [inhibitor, partial curve, poor fit] |
| CNC(=O)CSc1nc2cccnc2n1-c1ccc(F)cc1 | inactive |
| CCOC(=O)C1=C(COc2ccccc2)NC(=O)NC1c1ccc(Br)cc1 (centres undefined) | inconclusive [inhibitor, partial curve, poor fit] |
| Cc1nc2cc(-c3ccc(Cl)cc3)nn2c(C)c1CCC(=O)NCc1ccco1 | inconclusive [inhibitor, full curve, poor fit] |
| O=C(CN1CCN(C2CCCCC2)CC1)Nc1cccc2ccccc12 | inconclusive [inhibitor, partial curve] |
| COc1cccc(-c2nnn(CC(=O)N3CCC(C)CC3)n2)c1 | inconclusive [inhibitor, partial curve, poor fit] |
| CCOC(=O)C1=C(C)NC(=O)NC1c1cn(-c2ccccc2)nc1-c1cccs1 (centres undefined) | inconclusive [inhibitor, partial curve, poor fit] |
| CC(=O)Nc1ccc(S(=O)(=O)Nc2nc3ccccc3nc2Nc2ccc(N)cc2)cc1 | inconclusive [inhibitor, single point] |
| COc1ccccc1N1CCN(C(=O)c2c(C)cc(=O)oc2C)CC1 | inconclusive [inhibitor, full curve, poor fit] |

| SMILES | Potency |
| --- | --- |
| COc1ccc(C2C3=C(N=C4SCC(=O)N42)c2ccccc2CC3)cc1 (centres undefined) | inactive |
| Cc1ccc(OCc2nnc(SCC(=O)CC(=O)Nc3ccccc3)o2)cc1 | inconclusive [inhibitor, full curve] |
| CC12CCC(c3c(C(=O)Nc4nccs4)nn(-c4ccccc4)c31)C2(C)C (centres undefined) | inconclusive [inhibitor, full curve, poor fit] |
| N#C/C(=C(/O)c1cccc(F)c1)c1nc2ccccc2s1 | inactive |
| CC(c1ccccc1)C1CC(=O)N(CC(=O)O)C1=O (centres undefined) | inconclusive [inhibitor, full curve] |
| O=C(OCC(=O)N1CCN(c2ccccc2)CC1)c1nc(Cl)ccc1Cl | inconclusive [inhibitor, full curve, poor fit] |
| Cc1ccc(NC(=O)Nc2ncccc2C)cc1 | inconclusive [inhibitor, full curve] |
| COc1ccc(NC(=S)Nc2ccc(OC)cc2OC)c(OC)c1 | inconclusive [inhibitor, full curve, poor fit] |
| Cc1ccc(OCCNC(=O)c2cccc(S(=O)(=O)N3CCN(C)CC3)c2)cc1 | inconclusive [inhibitor, partial curve, poor fit] |
| CCN1CCN(CCC(=O)Nc2cccc(C)c2)CC1 | inconclusive [inhibitor, full curve, poor fit] |
| CC1=C(C(=O)OC2CCCCC2)C(c2ccco2)n2ncnc2N1 (centres undefined) | inconclusive [inhibitor, full curve, poor fit] |
| COc1ccccc1C1Nc2cccc3cccc(c23)N1 | inactive |
| O=C(NC1CCCCC1)C(c1ccncc1)N(Cc1ccc2c(c1)OCO2)C(=O)C(F)(F)F (centres undefined) | inconclusive [inhibitor, full curve, poor fit] |
| Fc1ccccc1-n1c(-c2ccc3ccccc3n2)n[nH]c1=S | inconclusive [inhibitor, partial curve, poor fit] |
| CCN(CC)c1cc(C)nc2nc(-c3ccc(C)cc3)nn12 | inactive |
| O=C(c1ccco1)N1CCN(C(=S)NCc2ccc(F)cc2)CC1 | inconclusive [inhibitor, partial curve, poor fit] |
| CCc1ccc(NC(=O)C(=O)N/N=C(\C)CC(=O)Nc2ccc(OC)cc2)cc1 | inactive |
| O=[N+]([O-])c1ccccc1-c1cc(-c2cc(Cl)ccc2O)n[nH]1 | inactive |
| CCCCN(CCCC)S(=O)(=O)c1ccc(OC)c2ncccc12 | inconclusive [inhibitor, full curve] |
| CCSc1nc2n(n1)C(c1ccc(CC)cc1)C(C(=O)Nc1ccccc1OC)=C(C)N2 (centres undefined) | inactive |
